Target: T1, integrin α5β1 (human, UniProt P08648 42-1049; P05556)
T1 construct: whole, on cells
Test: flow cytometry on human tumor cell panel (FIG. 1)

T1 sequence (P08648 42-1049, chain 1 of 2): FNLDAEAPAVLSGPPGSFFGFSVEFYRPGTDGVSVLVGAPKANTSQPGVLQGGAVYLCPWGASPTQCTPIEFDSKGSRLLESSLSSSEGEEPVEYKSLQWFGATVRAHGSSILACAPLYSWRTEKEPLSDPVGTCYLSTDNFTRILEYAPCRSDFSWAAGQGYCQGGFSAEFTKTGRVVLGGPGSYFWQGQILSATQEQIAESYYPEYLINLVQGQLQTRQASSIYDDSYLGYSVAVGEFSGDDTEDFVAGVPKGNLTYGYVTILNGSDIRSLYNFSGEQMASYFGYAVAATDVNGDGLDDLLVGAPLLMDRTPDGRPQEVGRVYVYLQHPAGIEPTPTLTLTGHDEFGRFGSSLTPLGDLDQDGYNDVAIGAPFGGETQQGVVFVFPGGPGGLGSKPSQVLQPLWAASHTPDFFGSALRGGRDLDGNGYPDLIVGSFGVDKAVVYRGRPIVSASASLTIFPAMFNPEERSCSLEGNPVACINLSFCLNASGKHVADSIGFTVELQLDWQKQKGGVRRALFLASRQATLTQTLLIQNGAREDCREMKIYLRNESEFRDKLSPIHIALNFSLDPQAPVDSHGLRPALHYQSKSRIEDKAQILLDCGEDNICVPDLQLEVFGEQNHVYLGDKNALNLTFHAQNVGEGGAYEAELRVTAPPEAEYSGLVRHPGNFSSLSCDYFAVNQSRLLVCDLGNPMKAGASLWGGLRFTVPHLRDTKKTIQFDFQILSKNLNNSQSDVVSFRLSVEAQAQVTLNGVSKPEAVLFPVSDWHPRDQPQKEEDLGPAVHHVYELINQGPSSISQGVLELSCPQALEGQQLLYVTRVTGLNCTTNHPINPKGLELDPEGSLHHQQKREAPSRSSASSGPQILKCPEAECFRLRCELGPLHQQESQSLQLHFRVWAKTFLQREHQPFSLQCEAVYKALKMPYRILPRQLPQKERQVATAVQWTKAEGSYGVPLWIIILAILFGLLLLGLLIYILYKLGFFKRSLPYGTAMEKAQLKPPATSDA
T1 sequence (P05556 21-798, chain 2 of 2, further chain): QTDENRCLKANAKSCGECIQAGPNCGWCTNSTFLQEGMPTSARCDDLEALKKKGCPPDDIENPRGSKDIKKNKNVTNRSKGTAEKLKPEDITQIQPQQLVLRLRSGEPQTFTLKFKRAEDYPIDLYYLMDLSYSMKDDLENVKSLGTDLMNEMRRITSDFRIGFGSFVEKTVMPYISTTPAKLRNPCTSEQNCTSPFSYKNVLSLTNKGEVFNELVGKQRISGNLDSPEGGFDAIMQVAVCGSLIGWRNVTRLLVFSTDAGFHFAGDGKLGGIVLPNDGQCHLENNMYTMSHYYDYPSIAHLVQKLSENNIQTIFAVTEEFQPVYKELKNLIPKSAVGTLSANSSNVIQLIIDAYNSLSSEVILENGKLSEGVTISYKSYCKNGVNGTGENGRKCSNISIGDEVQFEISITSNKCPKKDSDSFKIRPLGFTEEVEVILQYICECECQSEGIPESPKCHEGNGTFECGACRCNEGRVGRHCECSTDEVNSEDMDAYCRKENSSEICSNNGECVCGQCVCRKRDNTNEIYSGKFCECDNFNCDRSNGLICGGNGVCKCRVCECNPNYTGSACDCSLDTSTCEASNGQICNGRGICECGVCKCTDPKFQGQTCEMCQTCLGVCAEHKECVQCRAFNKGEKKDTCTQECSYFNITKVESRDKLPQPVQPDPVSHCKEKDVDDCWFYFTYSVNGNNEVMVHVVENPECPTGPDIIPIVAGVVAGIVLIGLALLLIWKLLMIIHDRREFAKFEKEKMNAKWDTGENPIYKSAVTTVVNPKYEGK

B1: scFv antibody Bc-15 (scFv)
scFv: MAQVQLVQSGAEVKEPGSSVKVSCKASGGTFSSYAIYWVRQAPGQGLEWMGWINPDSGDTNSAQQFQGRVTMTRDTSISTAYMELSRLRSDDTAMYYCARPPRGDGPDYWGQGTLVTVSSGGGGGS[letters of about 100 residues not shown]RGLGGLVDYKDDDDK
notes: Human scFv from a cancer patient phage library, with an RGD motif in CDR-H3; FITC-labelled in the internalization experiment; also called scFv Bc-15
**Q.** Does B1 bind?
**A.** Result: no binding

Source: patent US20090117096A1 (Scripps Research, published 2009)
